Experimental data from PubChem BioAssay AID588342 (National Center for Advancing Translational Sciences (NCATS), 2011).
About 25,000 (6.9%) of roughly 360,000 compounds were called active. This list was built around the results that the source calls inconclusive (neither active nor inactive); the mix of calls is not that of the screen. The call rests on the fitted dose curve; in most records, active means well fitted inhibition curve with a large enough effect; inconclusive means small, poorly fitted or top-dose-only effect; inactive means flat fitted curve, though single readings scatter. Potencies of inconclusive entries are doubtful fits and often do not repeat.

Target: Luciferin 4-monooxygenase (Photinus pyralis) (UniProt P08659)
Assay: qHTS profiling assay for firefly luciferase inhibitor/activator using purifed enzyme and Km concentrations of substrates (counterscreen for miR-21 project); further: nearly all actives have a fitted effect of over 55% in size
Conditions: purified FLuc, luminescence inhibition; series mostly up to 57.5 µM
Outline: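 Purified P. pyralis luciferase (10nM final) with 10uM D-luciferin and 10uM ATP (Km levels) in 50mM Tris acetate pH 7.5, 10mM Mg acetate, 0.01% Tween-20, 0.05% BSA; qHTS 6-point titration, ~60 µM downward; luminescence read.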
Potency means the concentration at half of the fitted maximal effect; tags describe the fitted curve by direction and shape.

Sequence of UniProt P08659 (P08659 whole entry, looked up): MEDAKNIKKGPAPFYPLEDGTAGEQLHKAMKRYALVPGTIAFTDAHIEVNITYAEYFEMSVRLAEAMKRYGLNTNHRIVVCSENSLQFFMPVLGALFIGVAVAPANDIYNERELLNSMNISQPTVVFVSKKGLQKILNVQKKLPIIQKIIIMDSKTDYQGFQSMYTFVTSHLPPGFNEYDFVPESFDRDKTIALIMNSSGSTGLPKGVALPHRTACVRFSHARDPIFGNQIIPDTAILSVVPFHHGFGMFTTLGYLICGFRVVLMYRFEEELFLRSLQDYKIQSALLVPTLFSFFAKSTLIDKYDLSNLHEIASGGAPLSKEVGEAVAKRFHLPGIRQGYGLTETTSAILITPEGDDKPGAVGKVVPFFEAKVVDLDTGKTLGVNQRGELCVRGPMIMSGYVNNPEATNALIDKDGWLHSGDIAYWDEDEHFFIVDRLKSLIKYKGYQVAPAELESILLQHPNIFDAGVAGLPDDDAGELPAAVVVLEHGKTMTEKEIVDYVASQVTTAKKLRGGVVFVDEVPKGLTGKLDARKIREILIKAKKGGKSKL

Question: For `CCCCOCCCNC(=O)CN1C(=O)c2ccccc2C1=O`, which Potency is on record?
Answer: inactive

Question: `O=C(O)Cc1ccc(S(=O)(=O)Nc2ccccc2C(=O)O)cc1` was tested. Which Potency did it give?
Answer: inconclusive: 26.9 µM [inhibitor, partial curve, poor fit]

Question: `CCOc1ccc(C(=O)NCc2ccc3c(c2)CCN3C(=O)c2ccc(C)cc2)cc1OCC` was tested. Which Potency did it give?
Answer: inconclusive: 12 µM [inhibitor, partial curve]

Question: How did the Potency turn out when `CC(C)(C)c1ccc(C(=O)OCC(=O)NC2CC2)cc1` was run?
Answer: inconclusive: 26.9 µM [inhibitor, single point]

Question: Which Potency does the source give for `CCCC[n+]1c2ccccc2cc2ccccc21` here?
Answer: inconclusive: 21.3 µM [inhibitor, partial curve]

Question: For `COc1ccccc1NC(=O)c1cc(C2CC2)nc2c1c(C)nn2-c1ccc(C)cc1`, which Potency is on record?
Answer: inactive

Question: How did the Potency turn out when `COC(=O)c1cc(NC(=O)Nc2ccccc2OC)cc(C(=O)OC)c1` was run?
Answer: inconclusive: 37.9 µM [inhibitor, partial curve, poor fit]

Question: With `COc1ccccc1-c1cnn2c(N3CCOCC3)cc(C)nc12` as the compound, how does the Potency read?
Answer: active: 6.01 µM

Question: Which Potency does the source give for `COc1ccc(Oc2nc(C)nc3c2oc2ccccc23)cc1` here?
Answer: inconclusive: 26.9 µM [inhibitor, partial curve, poor fit]

Question: `C=Cc1ccc(Cn2c(=O)cc(C)c3c(C)nn(C)c32)cc1` was tested. Which Potency did it give?
Answer: inactive

Question: With `Cc1c(NC(=O)CSc2nnc(-c3cccnc3)n2N)c(=O)n(-c2ccccc2)n1C` as the compound, how does the Potency read?
Answer: inactive

Question: How did the Potency turn out when `O=C(NCCC1=CCCCC1)C1CCN(S(=O)(=O)c2ccc(Br)s2)CC1` was run?
Answer: inactive

Question: Which Potency does the source give for `COc1cc(C(=O)Nc2ccc3c(c2)OCCO3)ccc1-n1cnnn1` here?
Answer: inconclusive: 16.9 µM [inhibitor, partial curve]

Question: For `CCOC(=O)CNC(=O)c1ccc2[nH]c3ccccc3c2c1`, which Potency is on record?
Answer: active: 16.9 µM

Question: For `O=C(COC(=O)C1CC(O)CN1S(=O)(=O)c1ccc(Cl)cc1)c1ccccc1Cl` (stereo unspecified), which Potency is on record?
Answer: inconclusive: 37.9 µM [inhibitor, single point]

Question: With `CCCCOc1cccc(C(=O)NC(=S)Nc2cccnc2)c1` as the compound, how does the Potency read?
Answer: inconclusive: 37.9 µM [inhibitor, partial curve, poor fit]

Question: For `Cc1ccc(NCCC(=O)c2ccc(Cl)c(Cl)c2)cc1`, which Potency is on record?
Answer: inactive

Question: Which Potency does the source give for `Cc1ccc(S(=O)(=O)N(Cc2ccccc2)c2ccccc2C(=O)N2CCCCC2)cc1` here?
Answer: inactive

Question: For `O=C(Nc1nc(-c2ccc(-c3ccccc3)cc2)cs1)c1cnccn1`, which Potency is on record?
Answer: inconclusive: 13.5 µM [inhibitor, partial curve]

Question: `O=C(Nc1ccc2c(c1)C(=O)N(c1ccccc1)C2=O)C1CCCO1` (stereo unspecified) was tested. Which Potency did it give?
Answer: inconclusive: 19 µM [inhibitor, partial curve]

Question: For `COc1cc(/C=N/NC(=O)c2cc(-c3c(C)nn(-c4ccccc4)c3C)n[nH]2)ccc1O`, which Potency is on record?
Answer: inconclusive: 21.3 µM [inhibitor, single point]

Question: With `COc1ccc(/C(O)=C2/C(=O)C(=O)N(c3ncccn3)C2c2ccc(C(C)(C)C)cc2)cc1` (stereo unspecified) as the compound, how does the Potency read?
Answer: inconclusive: 37.9 µM [inhibitor, partial curve, poor fit]

Question: Which Potency does the source give for `CCc1ccc(C(=O)NNC(=O)CN2C(=O)NC(CC)(c3ccccc3)C2=O)cc1` (stereo unspecified) here?
Answer: active: 16.9 µM

Question: How did the Potency turn out when `O=C(O)/C=C/c1ccc2c(-c3ccccc3)onc2c1` was run?
Answer: inconclusive: 26.9 µM [inhibitor, single point]

Question: How did the Potency turn out when `COc1cccc(C(=O)Nc2cc(NC(=O)c3ccco3)ccc2OC)c1` was run?
Answer: inconclusive: 23.9 µM [inhibitor, single point]

Question: With `COc1ccc(C(=O)Nc2ccc(N3CCOCC3)c(C(F)(F)F)c2)cc1OC` as the compound, how does the Potency read?
Answer: inconclusive: 23.9 µM [inhibitor, partial curve, poor fit]

Question: For `CCOc1ccc(-c2nnn(CCC(=O)O)n2)cc1OC`, which Potency is on record?
Answer: inactive

Question: How did the Potency turn out when `Cc1cccc(NC(=O)CSc2nc(=O)n(Cc3cccnc3)c3c2CCC3)c1C` was run?
Answer: inactive

Question: `Cn1nnnc1SCCNCc1ccc(OCc2ccc(Cl)cc2)cc1` was tested. Which Potency did it give?
Answer: inconclusive: 37.9 µM [inhibitor, single point]

Question: How did the Potency turn out when `Cc1ccc(-c2nsc3c(N4CCN(C(=O)c5ccco5)CC4)ncnc23)cc1` was run?
Answer: inconclusive: 16.9 µM [inhibitor, partial curve]

Question: Which Potency does the source give for `Cc1ccc(CNC(=O)Nc2ccc(F)cc2)n1C` here?
Answer: inconclusive: 30.1 µM [inhibitor, single point]

Question: How did the Potency turn out when `Cc1ccc(C(=O)/C=C/c2ccc(-c3ccccc3[N+](=O)[O-])o2)cc1` was run?
Answer: active: 19 µM

Question: `O=C(Oc1ccc2c3c(c(=O)oc2c1)CCC3)c1ccco1` was tested. Which Potency did it give?
Answer: active: 13.5 µM

Question: Which Potency does the source give for `CC(C)(C)C(=O)NCCCc1nc2ccccc2n1CCCOc1ccc(Cl)cc1` here?
Answer: inactive

Question: Which Potency does the source give for `Cc1ccc2nc(Nc3ccc4[nH]c(=O)[nH]c4c3)c(-n3nc(C)cc3C)nc2c1` here?
Answer: active: 0.849 µM

Question: With `Cc1c(CC(=O)O)c(=O)oc2c(C)c(OCc3ccccc3)ccc12` as the compound, how does the Potency read?
Answer: inconclusive: 37.9 µM [inhibitor, single point]

Question: `CCc1cccc(NC(=O)C(CC(C)C)NS(=O)(=O)c2ccc3c(c2)oc(=O)n3C)c1` (stereo unspecified) was tested. Which Potency did it give?
Answer: inactive

Question: For `O=C(N/N=C/c1ccc2c(c1)OCO2)c1ccc(NS(=O)(=O)c2cccs2)cc1`, which Potency is on record?
Answer: active: 9.53 µM

Question: How did the Potency turn out when `CC(=O)c1cc(C#N)c(SCc2ccccc2)nc1C` was run?
Answer: inconclusive: 23.9 µM [inhibitor, partial curve, poor fit]

Question: Which Potency does the source give for `Cc1ccc(/C=C2/NC(=O)N(c3ccccc3)C2=O)o1` here?
Answer: inconclusive: 16.9 µM [inhibitor, single point]

Question: Which Potency does the source give for `CC1CC(C)CN(C(=O)CCc2ccccc2)C1` (stereo unspecified) here?
Answer: inactive

Question: With `COc1ccc(NC(=O)c2ccc(COc3ccccc3)o2)cc1` as the compound, how does the Potency read?
Answer: active: 23.9 µM

Question: How did the Potency turn out when `CCc1noc(-c2ccc(N3CCCCC3)c([N+](=O)[O-])c2)n1` was run?
Answer: inconclusive: 26.9 µM [inhibitor, partial curve, poor fit]

Question: Which Potency does the source give for `Cc1ccc(-n2cnn(-c3ccc([N+](=O)[O-])cc3[N+](=O)[O-])c2=O)cc1` here?
Answer: inconclusive: 26.9 µM [inhibitor, partial curve, poor fit]

Question: With `COc1ccc(-c2nc(C=O)cs2)cc1` as the compound, how does the Potency read?
Answer: inconclusive: 16.9 µM [inhibitor, partial curve]

Question: `Cn1c(=O)c2c3c(sc2n2c(SCC(N)=O)nnc12)CC(C(C)(C)C)CC3` (stereo unspecified) was tested. Which Potency did it give?
Answer: inconclusive: 37.9 µM [inhibitor, single point]

Question: `Cc1c(OCC(=O)N2CCC(C(=O)O)CC2)ccc2c1oc(=O)c1ccccc12` was tested. Which Potency did it give?
Answer: inconclusive: 37.9 µM [inhibitor, partial curve, poor fit]

Question: How did the Potency turn out when `CCC1CCCCN1C(=O)CSc1nnc(-c2ccc(Cl)s2)o1` (stereo unspecified) was run?
Answer: inconclusive: 19 µM [inhibitor, partial curve, poor fit]

Question: With `CCc1ccc(NC(=S)Nc2ccc3[nH]c(=O)[nH]c3c2)cc1` as the compound, how does the Potency read?
Answer: inconclusive: 19 µM [inhibitor, partial curve]

Question: For `CCc1c(C)c2ccc(O)c(CN3CCN(c4ccccc4)CC3)c2oc1=O`, which Potency is on record?
Answer: inconclusive: 23.9 µM [inhibitor, single point]

Question: For `COc1ccc(/C=C/C(=O)OCC(=O)Nc2cc(S(=O)(=O)N(C)C)ccc2Cl)cc1`, which Potency is on record?
Answer: active: 12 µM

Question: How did the Potency turn out when `CC(=O)Nc1ccc(CNc2ncnc3ccc(-c4c(C)noc4C)cc23)cc1` was run?
Answer: inactive

Question: Which Potency does the source give for `CC(=O)c1cccc(NC(=O)CSc2ccc(-c3sc(C)nc3C)nn2)c1` here?
Answer: active: 13.5 µM

Question: With `CCc1cccc(C)c1NC(=O)CN(C)S(=O)(=O)c1cccc2nsnc12` as the compound, how does the Potency read?
Answer: inactive

Question: Which Potency does the source give for `Cc1nn(CC(=O)NCCCc2ccccc2)c(C)c1[N+](=O)[O-]` here?
Answer: inactive

Question: For `Cc1ccc(Nc2nc(N)nc(-c3oc4ccccc4c3C)n2)cc1`, which Potency is on record?
Answer: active: 7.57 µM

Question: How did the Potency turn out when `C/C(CC(=O)Nc1cccc(Br)c1)=N\NC(=O)c1ccc(O)cc1O` was run?
Answer: inconclusive: 30.1 µM [inhibitor, single point]

Question: `Cc1cccc(NC(=O)c2ccc3c(=O)n4c(nc3c2)CCCCC4)n1` was tested. Which Potency did it give?
Answer: active: 4.78 µM

Question: With `Cc1ccc(NC(=O)COc2ccccc2C(N)=O)cc1S(=O)(=O)N1CCCCCC1` as the compound, how does the Potency read?
Answer: active: 23.9 µM

Question: Which Potency does the source give for `O=C1C(C=NCCCN2CCOCC2)=C(O)c2ccccc21` here?
Answer: inconclusive: 23.9 µM [inhibitor, single point]

Question: Which Potency does the source give for `CC1CCN(S(=O)(=O)c2nnc(NC(=O)c3cccc(F)c3)s2)CC1` here?
Answer: inconclusive: 15.1 µM [inhibitor, partial curve, poor fit]

Question: How did the Potency turn out when `COCCC(=O)N1CCC(C(=O)Nc2ccc(Oc3ccccc3)nc2)CC1` was run?
Answer: inconclusive: 21.3 µM [inhibitor, partial curve]

Question: With `COc1ccc(OCc2cc(C(=O)N3C[C@H]4CC[C@H]3C4)no2)c(Cl)c1` as the compound, how does the Potency read?
Answer: inconclusive: 23.9 µM [inhibitor, partial curve]

Question: `O=C(NC(NCc1cccnc1)C(Cl)(Cl)Cl)c1cccc2ccccc12` (stereo unspecified) was tested. Which Potency did it give?
Answer: inactive

Question: Which Potency does the source give for `CN(C)c1ccc(/C=N/NC(=O)c2ccc(Cl)cc2)cc1` here?
Answer: inconclusive: 1.9 µM [inhibitor, partial curve, poor fit]

Question: How did the Potency turn out when `Cc1ccc(Nc2nc(N3CCOCC3)c3ccccc3n2)cc1` was run?
Answer: inconclusive: 26.9 µM [inhibitor, single point]

Question: How did the Potency turn out when `O=C(CNCc1ccco1)Nc1cccc(S(=O)(=O)N2CCCCC2)c1` was run?
Answer: inactive

Question: With `COC(=O)c1sc(NC(=O)c2ccoc2C)nc1C` as the compound, how does the Potency read?
Answer: inconclusive: 8.49 µM [inhibitor, partial curve, poor fit]

Question: `Cc1cc(/C=N/Nc2ccc([N+](=O)[O-])cn2)c(C)n1-c1ccc(C(=O)O)cc1` was tested. Which Potency did it give?
Answer: inconclusive: 37.9 µM [inhibitor, partial curve, poor fit]

Question: With `CC(C)(C)c1ccc(-c2noc(CCC(=O)Nc3cccc(Cl)c3)n2)cc1` as the compound, how does the Potency read?
Answer: inconclusive: 1.51 µM [inhibitor, full curve, poor fit]

Question: Which Potency does the source give for `O=C(Nc1ccnn1C1CCN(Cc2ccc(Cl)cc2)CC1)C1CCCC1` here?
Answer: inconclusive: 8.49 µM [inhibitor, partial curve, poor fit]
